PubChem BioAssay AID1347073 (National Center for Advancing Translational Sciences (NCATS), 2019)
Hit rate of the full screen: of about 45,000 compounds, about 200 (0.44%) were called active. About 7% were inconclusive and are not listed. Calls follow the shape of the dose curve; as a rule, active = well fitted activation curve with a large enough effect; inconclusive = small, poorly fitted or top-dose-only effect; inactive = no such curve, though single readings can be large or run the other way. The list shows a part of the results.

Assay: qHTS of TDP-43 Inhibitors: NCGC Sytravon Library Screen; also: 0% is about no effect; nearly all actives have a fitted effect of over 55% in size
Conditions: yeast TDP-43 toxicity rescue, BacTiter-Glo growth, 24 h; series mostly up to 46.1 µM; growth rescue (activation): at the top concentration
How it was run: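 TDP-43-expressing yeast, pregrown in raffinose, seeded at OD600 0.02 in galactose medium with compound for 24 hr at 30 deg C. Growth read by BacTiter-Glo luminescence, so rescue of toxicity appears as activation.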

Row | Structure (SMILES) | growth rescue (activation)
1 | CN(CCC#N)C(=O)COc1ccc(Br)cc1Cl | inactive: 1.98%
2 | O=C(CN1CCCCCC1)NCc1ccccc1 | inactive: 5.61%
3 | CCc1ccccc1NC(=O)N1CCC(NC(=O)C(Cc2ccccc2)NC(C)=O)CC1 (stereo not drawn) | inactive: 1.73%
4 | Cc1nnc(SCC(=O)Nc2ccccc2)c2ccccc12 | inactive: 14%
5 | CCOC(=O)c1ccc(S(=O)(=O)Nc2ccc(N3CCOCC3)cc2)cc1 | inactive: -5.76%
6 | O=C(CN(c1ccccc1)S(=O)(=O)c1ccccc1)N1CCOCC1 | inactive: -7.45%
7 | Cc1ccc(S(=O)(=O)N2CCOCC2)cc1C(=O)OCC(=O)N1CCCC1=O | inactive: -4.06%
8 | COc1cc(C)c(S(=O)(=O)N2CCN=C2c2ccccc2)cc1C | inactive: 6.27%
9 | Nn1c(COc2ccccc2)nc2ccccc2c1=O | inactive: 40.7%
10 | COc1cc(C2NC(=O)NC(C)=C2C(=O)OCC2CCCO2)cc(OC)c1OC (stereo not drawn) | inactive: 0.965%
11 | Cc1ccc(NC(=O)c2ccc(OC(=O)COc3cccc(Cl)c3)cc2)cc1 | inactive: 26.4%
12 | Cc1ccc(NC(=S)N2CCCC(c3nc4ccccc4[nH]3)C2)cc1 (stereo not drawn) | inactive: 11%
13 | COc1ccc(CNC(=O)N2CCN(S(=O)(=O)c3ccccc3F)CC2)cc1 | inactive: 15.6%
14 | COc1ccc(OC)c(NC(=O)CC2SC(=Nc3ccc(F)cc3)N(CCC3=CCCCC3)C2=O)c1 (stereo not drawn) | inactive: 14.2%
15 | O=c1cc(-c2ccc(O)cc2)oc2ccc(O)cc12 | inactive: -7.93%
16 | O=C(/C=C/c1ccc(S(=O)(=O)N2CCOCC2)cc1)NCc1ccccc1Cl | inactive: -10.1%
17 | COc1cc(C(=O)NNC(=O)c2cc(-c3ccccc3)n[nH]2)cc(OC)c1C | inactive: 1.48%
18 | COc1ccc(C(=O)O)cc1S(=O)(=O)NC(C)C12CC3CC(CC(C3)C1)C2 (stereo not drawn) | inactive: 28%
19 | CC(=O)Oc1cccc(C(=O)Nc2ccccc2C(=O)N2CCCC2)c1 | inactive: 18%
20 | CN(C)Cc1cc2ccccc2c2c1COC2 | inactive: -16.7%
21 | CCCS(=O)(=O)NC(=O)C1(C)CCN(C(=O)c2cc(C)n(C(C)(C)C)n2)C1 (stereo not drawn) | inactive: 2.13%
22 | Cc1ccc(S(=O)(=O)Nc2nc(C)c(C(=O)N/N=C/c3ccccc3)s2)cc1 | inactive: 15.2%
23 | COc1ccc(NC(=O)C2C(=O)N(CCO)C3(C)CC2c2ccccc2O3)cc1 (stereo not drawn) | inactive: 6.21%
24 | CCNC(=S)N1CCN(c2ccccc2OCC)CC1 | inactive: -7.51%
25 | O=C1c2sc3nc4n(c(=O)c3c2CCC1Br)CCCCC4 (stereo not drawn) | inactive: 27.8%
26 | Nn1cnc2c([nH]c3ccccc32)c1=O | inactive: 6.17%
27 | COc1ccc(NC(=O)C2(C)CCN2C)cc1OC (stereo not drawn) | inactive: -5.34%

Row | Structure (SMILES) | growth rescue (activation)
28 | Cc1cc(=O)[nH]c(SCC(=O)Nc2ncc(S(=O)(=O)c3ccc([N+](=O)[O-])cc3)s2)n1 | inactive: 14.6%
29 | Cc1ccccc1NC(=O)N1CCc2ccccc2C1 | inactive: 2.41%
30 | CCOC(=O)c1ccccc1NC(=O)Cn1cnc2c(cnn2C(C)(C)C)c1=O | inactive: -4.54%
31 | Cc1c(CCC(=O)O)c(=O)oc2cc(OCc3cccc(F)c3)ccc12 | inactive: 10.9%
32 | O=S(=O)(c1ccc(-c2csc(Nc3ccc(F)cc3)n2)cc1)N1CCCC1 | inactive: 16.5%
33 | Cc1cc(-c2nc3ncccc3o2)ccc1NC(=S)NC(=O)c1ccco1 | inactive: 14.7%
34 | NS(=O)(=O)c1ccc(NC(=O)/C=C/c2cccc(Cl)c2)cc1 | inactive: -4.17%
35 | COc1ccc(OC)c(-n2nnc(-c3nc(-c4ccc5c(c4)OCO5)no3)c2C)c1 | inactive: 20.2%
36 | CCOC(=O)C1CCN(c2c(NCc3ccc(C(=O)N(C)Cc4ccccc4)cc3)c(=O)c2=O)CC1 | inactive: -0.503%
37 | Cn1nc(C(F)(F)F)c(C#N)c1N1CCN(c2ccccc2F)CC1 | inactive: -1.03%
38 | Cc1cc(=O)c2ccccc2n1Cc1ccccc1 | inactive: -1.08%
39 | Cc1ccnn1CCC(=O)N1CCCC(CCC(=O)N2CCN(c3ccccn3)CC2)C1 (stereo not drawn) | inactive: 11.8%
40 | CCOC(=O)c1c(NC(=O)CSc2nnc(C)c(=O)[nH]2)sc(C)c1-c1ccc(C)cc1 | inactive: -1.07%
41 | CCOC(=O)/C=C1/SCC(=O)N1Cc1ccc(Br)cc1 | inactive: 6.95%
42 | O=S(=O)(c1cccs1)N1CCN(CCc2ccccc2)CC1 | inactive: 14.3%
43 | Cc1cc(C(=O)OCC(=O)Nc2ccccc2C#N)c(C)o1 | inactive: 37.3%
44 | O=C(NCCN1C(=O)S/C(=C\c2ccc(Cl)c(Cl)c2)C1=O)c1cnccn1 | inactive: 16.9%
45 | C/C(=N\NC(=O)CN1CCCCC1)c1ccccc1O | inactive: -1.01%
46 | N#Cc1cccc(NC(=O)COC(=O)c2ccc[n+]([O-])c2)c1 | inactive: 4.14%
47 | COc1cc(CN2C[C@@H](CO)O[C@@H](n3cnc4c(NCc5ccc(F)cc5)ncnc43)C2)cc(OC)c1OC | inactive: 4.66%
48 | NC(=O)c1ccccc1NC(=O)CCn1c(=S)oc2ccccc21 | inactive: -1.36%
49 | Cc1ccc(OCC(=O)Nc2c[nH]c(=O)[nH]c2=O)cc1C | inactive: 0.598%
50 | O=C(Nc1ccc(N2CCOCC2)cc1N1CCOCC1)c1ccccc1 | inactive: 7.19%
51 | O=C(c1ccc(N2CCOCC2)c([N+](=O)[O-])c1)N1CCN(c2ccccc2)CC1 | inactive: 3.36%
52 | O=C(/C=C/c1ccc2c(c1)OCO2)NCc1ccncc1 | inactive: -20.4%
53 | CC(=O)Nc1nc(C)c(Oc2ccc(Cl)cc2Cl)c(=O)[nH]1 | inactive: 12.3%
